The text below walks through data of a collection of fitness landscapes (doi:10.1126/science.1257360).

The list shows a part of the results.

B1: PhoQ; a variant is named by its letters at X, in order, P23837 (parent)
chain: MKKLLRLFFPLSLRVRFLLATAAVVLVLSLAYGMVALIGYSVSFDKTTFRLLRGESNLFYTLAKWENNKLHVELPENIDKQSPTMTLIYDENGQLLWAQRDVPWLMKMIQPDWLKSNGFHEIEADVNDTSLLLSGDHSIQQQLQEVREDDDDAEMTHSVAVNVYPATSRMPKLTIVVVDTIPVELKSSYMVWSWFIYVLSANLLLVIPLLWVAAWWSLRPIEALAKEVRELEEHNRELLNPATTRELTSLVRNLNRLLKSERERYDKYRTTLTDLTHSLKTPLXXLQXXLRSLRSEKMSVSDAEPVMLEQISRISQQIGYYLHRASMRGGTLLSRELHPVAPLLDNLTSALNKVYQRKGVNISLDISPEISFVGEQNDFVEVMGNVLDNACKYCLEFVEISARQTDEHLYIVVEDDGPGIPLSKREVIFDRGQRVDTLRPGQGVGLAVAREITEQYEGKIVAGESMLGGARMEVIFGRQHSAPKDE

The variants in this assay derive from B1. The assay can be described thus: enrichment ratio after two sorts for PhoP signalling (ratio (wild type AVST 3.29)); higher = more functional. The following applies: with PhoP (E. coli).
Consider PVNM, for which the enrichment ratio was ≤ 0.25.
For TASW, the enrichment ratio is ≤ 0.25.
The figure for AEYS is 1.65; for MMPA it is ≤ 0.25; for RGMY it is ≤ 0.25.
For MMPM the value was ≤ 0.25; for APKR, ≤ 0.25; for HQYT, ≤ 0.25.
The figure for EAFN is ≤ 0.25; for VGNV it is ≤ 0.25.
As to ADIC, the enrichment ratio amounted to 4.63.
On to FWEE, for which the enrichment ratio was ≤ 0.25.
The figure for RNQE is ≤ 0.25; for TSEM it is 9.83.
With QEAQ, the enrichment ratio was ≤ 0.25.
For HAVN the value was ≤ 0.25; for SNPM, 0.306; for WTWM, ≤ 0.25.
QSFF: the enrichment ratio came to 1.05.
The figure for APLP is ≤ 0.25.
The figure for IDYG is ≤ 0.25; for IHGK it is ≤ 0.25; for FMFD it is ≤ 0.25.
For QGFY the value was 4.24; for TVIS, ≤ 0.25.
For the variant YIFT, the enrichment ratio is ≤ 0.25.
As to FGRN, the enrichment ratio is ≤ 0.25.
The figure for TGSS is 11; for DTYY it is ≤ 0.25.
For the variant ESYI, the enrichment ratio was ≤ 0.25.
For SKGK the value was ≤ 0.25.
For RKWD the value was ≤ 0.25; for LPTC, ≤ 0.25; for FGGT, ≤ 0.25.
Turning to CSLY, the enrichment ratio was found to be 0.296.
Turning to LRCC, the enrichment ratio is ≤ 0.25.
With RAHI, the enrichment ratio was ≤ 0.25.
The figure for FKKA is ≤ 0.25; for VNWY it is ≤ 0.25.
Take MDRK: the enrichment ratio is ≤ 0.25.
For SWES the value was ≤ 0.25; for YDQL, ≤ 0.25; for WSWV, ≤ 0.25.
The figure for INLY is ≤ 0.25; for ERIY it is ≤ 0.25; for DPIN it is ≤ 0.25.
For FYNV the value was ≤ 0.25.
Regarding ASPH, the enrichment ratio is ≤ 0.25.
For AEGP the value was ≤ 0.25; for TKHL, 1.82; for WGST, ≤ 0.25.
For TFRP the value was ≤ 0.25.
For VLIY the value was ≤ 0.25; for FHHH, ≤ 0.25; for FCAL, ≤ 0.25.
Regarding SLDS, the enrichment ratio was ≤ 0.25.
For NKPA, the enrichment ratio was ≤ 0.25.
For YHVS the value was ≤ 0.25; for DHIM, ≤ 0.25; for LWNT, ≤ 0.25.
The figure for TPED is ≤ 0.25; for TEEP it is ≤ 0.25.
For LARP the value was ≤ 0.25.
On to PRYI, for which the enrichment ratio was ≤ 0.25.
For SWKR the value was ≤ 0.25.
For HKPF the value was ≤ 0.25; for VTIS, ≤ 0.25; for VWGQ, ≤ 0.25.
The figure for HPYN is ≤ 0.25.
On to QPDI, for which the enrichment ratio was ≤ 0.25.
The figure for EELA is ≤ 0.25; for WDAF it is ≤ 0.25; for MPGR it is ≤ 0.25.
For WQAN the value was ≤ 0.25; for PTFE, ≤ 0.25; for SWSK, ≤ 0.25.
For PAPK the value was ≤ 0.25; for HDDP, ≤ 0.25.
With MFNG, the enrichment ratio is ≤ 0.25.
The figure for QGNN is ≤ 0.25; for TKWG it is ≤ 0.25; for MFCS it is ≤ 0.25.
The figure for LGHR is ≤ 0.25.
Consider MPRT, for which the enrichment ratio is ≤ 0.25.
Consider TKLM, for which the enrichment ratio is 21.3.
For SKMA the value was 3.27.
For HDMC the value was ≤ 0.25; for YMQV, ≤ 0.25.
Regarding SLTK, the enrichment ratio was 0.362.
For NNSD the value was ≤ 0.25; for IIPS, ≤ 0.25.
For HRKH the value was ≤ 0.25.
For DIVS the value was ≤ 0.25.
Take TLKL: the enrichment ratio was ≤ 0.25.
The figure for FIWP is ≤ 0.25; for IVAS it is ≤ 0.25.
For QAAW the value was ≤ 0.25.
The figure for ASEL is 3.67; for PMMN it is ≤ 0.25; for EDTV it is ≤ 0.25.
DDLG: the enrichment ratio was ≤ 0.25.
The figure for PLDL is ≤ 0.25; for PWMY it is ≤ 0.25.
For VGWC the value was ≤ 0.25.
For PFEE the value was ≤ 0.25; for SMCI, 14.3.
Consider TNKI, for which the enrichment ratio is ≤ 0.25.
The figure for CFPY is ≤ 0.25; for WQSY it is ≤ 0.25; for IACD it is ≤ 0.25.
The figure for SFFM is ≤ 0.25.
The figure for SHWT is ≤ 0.25; for TGMC it is 31.9.
Consider HITL, for which the enrichment ratio worked out at 1.13.
For the variant WFNP, the enrichment ratio was ≤ 0.25.
Regarding GYRD, the enrichment ratio is ≤ 0.25.
The figure for LSQV is ≤ 0.25; for IRWY it is ≤ 0.25.
Regarding FETT, the enrichment ratio is ≤ 0.25.
For WWDL the value was ≤ 0.25; for RRNI, ≤ 0.25.
For FKEQ the value was ≤ 0.25; for WYVI, ≤ 0.25.
DRLR: the enrichment ratio is ≤ 0.25.
The figure for FEDG is ≤ 0.25.
For IGHV the value was ≤ 0.25; for RVMG, ≤ 0.25; for MHEV, ≤ 0.25.
For FSAK the value was ≤ 0.25.
Consider VEVT, for which the enrichment ratio was determined as 5.
The figure for EVDS is ≤ 0.25.
The figure for LISA is ≤ 0.25.
For FDQS the value was ≤ 0.25; for DQKP, ≤ 0.25; for WEVK, ≤ 0.25.
Turning to IWVY, the enrichment ratio was ≤ 0.25.
As to IDYT, the enrichment ratio was ≤ 0.25.
The figure for LPPQ is ≤ 0.25; for IYAD it is ≤ 0.25.
The figure for PHGR is ≤ 0.25; for TNVF it is ≤ 0.25.
For the variant PDCI, the enrichment ratio was ≤ 0.25.
For AKPQ the value was ≤ 0.25.
The figure for TDRP is ≤ 0.25.
For YYER the value was ≤ 0.25.
In the case of FHMS, the enrichment ratio was ≤ 0.25.
Consider LSFI, for which the enrichment ratio was 6.55.
As for AFSG, the enrichment ratio amounted to 5.71.
On to LRDD, for which the enrichment ratio is ≤ 0.25.
For ANAS the value was 10.7; for QRIN, ≤ 0.25; for HYPA, ≤ 0.25.
The figure for LCWI is ≤ 0.25.
The figure for ITQP is ≤ 0.25.
Turning to QANH, the enrichment ratio is ≤ 0.25.
Take GITS: the enrichment ratio amounted to 5.92.
For HDGF the value was ≤ 0.25.
The figure for IKNW is ≤ 0.25.
Take YKVL: the enrichment ratio is ≤ 0.25.
The figure for QDIV is ≤ 0.25; for VTCL it is 5.34; for NSIH it is ≤ 0.25.
The figure for RVLI is 0.745.
The figure for NMLC is ≤ 0.25; for ALFR it is ≤ 0.25.
On to WPFQ, for which the enrichment ratio was ≤ 0.25.
The figure for WMIR is ≤ 0.25; for MDYN it is ≤ 0.25.
The figure for YGPW is ≤ 0.25; for FSWS it is ≤ 0.25.
As to DAVP, the enrichment ratio was ≤ 0.25.
For YTLA, the enrichment ratio was determined as 4.01.
Take DNFV: the enrichment ratio was ≤ 0.25.
For IFRP the value was ≤ 0.25; for LRWW, ≤ 0.25; for FVAF, ≤ 0.25.
For SPCF the value was ≤ 0.25; for SWRM, ≤ 0.25; for TCKY, ≤ 0.25.
The figure for FMCS is ≤ 0.25; for AVGR it is ≤ 0.25.
In the case of PHTE, the enrichment ratio was ≤ 0.25.
Take IIIG: the enrichment ratio was ≤ 0.25.
In the case of NPCE, the enrichment ratio is ≤ 0.25.
As to AKTN, the enrichment ratio was ≤ 0.25.
In the case of AQNY, the enrichment ratio is 0.444.
For MGRM the value was ≤ 0.25.
SMFQ: the enrichment ratio is ≤ 0.25.
For SWMM the value was ≤ 0.25.
For DPME the value was ≤ 0.25.
For QGQV, the enrichment ratio is ≤ 0.25.
For FGIW the value was ≤ 0.25; for TPNS, ≤ 0.25.
For VGMF, the enrichment ratio is ≤ 0.25.
For FWTE the value was ≤ 0.25.
For RFIN the value was ≤ 0.25; for RLSE, ≤ 0.25; for ADHS, ≤ 0.25.
Turning to LVSD, the enrichment ratio was ≤ 0.25.
For FVCS the value was ≤ 0.25; for WTVY, ≤ 0.25; for EEVW, ≤ 0.25.
On to ITEY, for which the enrichment ratio was ≤ 0.25.
Turning to FSVD, the enrichment ratio is ≤ 0.25.
Regarding TGGS, the enrichment ratio was 9.2.
The figure for WMGS is ≤ 0.25; for YFRQ it is 0.298.
For GESH the value was 8.14; for QVQW, ≤ 0.25.
The figure for MDQY is ≤ 0.25; for FPGP it is ≤ 0.25.
For the variant YKEY, the enrichment ratio was ≤ 0.25.
The figure for ESVM is ≤ 0.25; for VDVW it is ≤ 0.25; for QDRG it is ≤ 0.25.
The figure for YECS is 14.8.
The figure for SQNK is ≤ 0.25.
For the variant ASKL, the enrichment ratio was ≤ 0.25.
The figure for YLKP is ≤ 0.25; for GRVG it is ≤ 0.25.
For FMEG the value was ≤ 0.25.
For KACH the value was ≤ 0.25; for WSMV, ≤ 0.25; for GSRM, ≤ 0.25.
As to YGEF, the enrichment ratio was ≤ 0.25.
The figure for NANK is ≤ 0.25; for GFGI it is ≤ 0.25.
The figure for QPVP is ≤ 0.25; for QMNK it is ≤ 0.25; for MWGM it is ≤ 0.25.
For IALL, the enrichment ratio stood at 8.58.
For NQWM the value was ≤ 0.25.
The figure for WLSE is ≤ 0.25; for QNKG it is ≤ 0.25; for AYIW it is ≤ 0.25.
In the case of AAKC, the enrichment ratio was ≤ 0.25.
The figure for KPMW is ≤ 0.25.
For GDPL the value was ≤ 0.25.
For ILYP the value was ≤ 0.25; for GMLV, 2.73.
Take DLRH: the enrichment ratio was ≤ 0.25.
With AKKC, the enrichment ratio is ≤ 0.25.
For SYFL the value was ≤ 0.25; for THAP, ≤ 0.25; for TMSH, 3.82.
The figure for DAGH is ≤ 0.25.
With PEPH, the enrichment ratio was ≤ 0.25.
For VWTM the value was ≤ 0.25; for TVEW, ≤ 0.25.
The figure for IQGP is ≤ 0.25; for PIAP it is ≤ 0.25.
For NRLV the value was ≤ 0.25; for WGDA, ≤ 0.25; for LHKG, ≤ 0.25.
WPPL: the enrichment ratio is ≤ 0.25.
For YNMM the value was 6.38; for PNGR, ≤ 0.25.
The figure for YWIW is ≤ 0.25.
The figure for MQLY is 9.31.
EIAS: the enrichment ratio is ≤ 0.25.
For the variant LQAV, the enrichment ratio was ≤ 0.25.
The figure for VFPS is ≤ 0.25; for VAAL it is 0.814.
Turning to QPHC, the enrichment ratio is ≤ 0.25.
The figure for HHVT is ≤ 0.25; for YPCT it is ≤ 0.25; for HTDG it is ≤ 0.25.
For SWMN the value was ≤ 0.25; for IDVW, ≤ 0.25; for DREP, ≤ 0.25.
For KELR the value was ≤ 0.25; for DVEC, ≤ 0.25.
Consider NLIP, for which the enrichment ratio was ≤ 0.25.
For IYDI the value was ≤ 0.25.
The figure for PQLN is ≤ 0.25; for HGKP it is ≤ 0.25; for SQVV it is 8.77.
The figure for MATQ is ≤ 0.25; for YEHN it is ≤ 0.25.
As to QIHA, the enrichment ratio is ≤ 0.25.
The figure for ISLD is ≤ 0.25; for YLGF it is ≤ 0.25; for NHDI it is ≤ 0.25.
For QFMK the value was ≤ 0.25; for VQHL, 0.767; for VFIK, ≤ 0.25.
For QACP the value was ≤ 0.25.
Take TTLR: the enrichment ratio was 3.8.
For HYQC the value was ≤ 0.25; for WSVR, ≤ 0.25.
As to RMGY, the enrichment ratio was ≤ 0.25.
The figure for THQE is ≤ 0.25; for DDVS it is ≤ 0.25.
For NVYH the value was ≤ 0.25; for FTKI, ≤ 0.25; for EYGP, ≤ 0.25.
For FDNY the value was ≤ 0.25; for VLPG, ≤ 0.25; for AMDM, ≤ 0.25.
As for WDMA, the enrichment ratio was ≤ 0.25.
The figure for NSLH is ≤ 0.25.
For GHQM the value was ≤ 0.25.
DIGC: the enrichment ratio is ≤ 0.25.
For EIAT the value was ≤ 0.25; for LEQW, ≤ 0.25.
Regarding RPFC, the enrichment ratio was ≤ 0.25.
